About 6,500 (4.3%) of roughly 150,000 compounds were called active. The shares of active, inactive and inconclusive entries below differ from those in the screen. Calls follow the shape of the dose curve; as a rule, active = well fitted inhibition curve with a large enough effect (not every such curve was filed as active); inconclusive = small, poorly fitted or top-dose-only effect, or another doubt; inactive = no such curve, though single readings can be large or run the other way. No potency is given beside an inconclusive call; the fits are too rough.
Target: 15-hydroxyprostaglandin dehydrogenase [NAD(+)] (Homo sapiens) (UniProt P15428)
Chain of UniProt P15428 (P15428 whole entry, looked up): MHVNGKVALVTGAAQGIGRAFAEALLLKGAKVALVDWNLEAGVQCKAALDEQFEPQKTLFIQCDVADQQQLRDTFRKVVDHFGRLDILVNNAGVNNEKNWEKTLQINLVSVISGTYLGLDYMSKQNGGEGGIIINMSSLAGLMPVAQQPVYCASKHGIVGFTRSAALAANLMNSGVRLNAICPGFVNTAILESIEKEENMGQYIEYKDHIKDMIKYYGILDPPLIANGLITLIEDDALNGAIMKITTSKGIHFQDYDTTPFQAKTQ
Test: qHTS Assay for Inhibitors of HPGD (15-Hydroxyprostaglandin Dehydrogenase)
Conditions: purified HPGD, NADH fluorescence kinetic, PGE2 substrate; activity change, negative = inhibition: hits give low values
Procedure, shortened: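 NADH formation kinetics: reaction with 30 uM PGE2 and 1 mM NAD+ (final), 20 nM enzyme, Tris-HCl pH 8 with Tween 20, after 15 min compound preincubation at room temperature. Fluorescence change, last versus first of five reads.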
% is scaled to controls: 0 for no effect and ±100 for the full control effect; potency is read from the fitted curve at half-maximal effect; tags tell the direction and shape of the fitted curve.

SMILES | Potency | activity change, negative = inhibition
Cc1ccc(C(=O)COc2cccc(NC(=O)c3ccco3)c2)cc1 | inconclusive [inhibitor, partial curve] | 
CNS(=O)(=O)c1cccc(C(=O)OCC(=O)/C=C2/N(C)c3ccccc3C2(C)C)c1 | inconclusive [inhibitor, partial curve] | 
Cc1ccc2oc(=O)c3cc(C(=O)NCCN4CCc5ccccc5C4)sc3c2c1 | inconclusive [inhibitor, single point] | 
CCN(CC)C(=O)CSc1nc2sc(C)c(C)c2c(=O)[nH]1 | active: 12.6 µM | 
C=CCn1c(Cc2cccs2)nnc1SCC(=O)Nc1cc(OC)cc(OC)c1 |  | inactive: -1.86%
CCc1nnc(SCc2cn3c(C)cc(C)nc3n2)n1N | inconclusive [inhibitor, partial curve] | 
CC1CCCN(Cc2c(O)ccc3c2O/C(=C\c2ccco2)C3=O)C1 (stereo unspecified) | inconclusive [inhibitor, partial curve] | 
Cc1ccc(-n2c(C)cc(/C=C3\NC(=O)NC3=O)c2C)c(C)c1 | inconclusive [inhibitor, single point] | 
CCCOC(=S)Nc1ccccc1 | active: 22.4 µM | 
O=C(NCc1ccco1)c1cc2c(s1)CSC2 | inconclusive [inhibitor, single point] | 
Oc1c(Cl)cccc1C=Nc1cc(C(F)(F)F)ccc1N1CCCC1 | active: 15.8 µM | 
CSc1ccc(Cl)c(C(=O)OCC(=O)NCc2ccco2)c1 | inconclusive [inhibitor, partial curve] | 
O=C(Nc1cccc(F)c1)N1CC[C@@]2(CCCN(C(=O)c3cnccn3)C2)C1 |  | inactive: -4.16%
COc1ccccc1NCC(=O)N/N=C/c1cccnc1 |  | inactive: -21.2%
CCOC(=O)c1ccc(NC(=S)NNC(=O)COC)cc1 |  | inactive: -19.7%
C#CCSc1nnc(CSc2nc3ccccc3s2)n1-c1ccccc1 | inconclusive [inhibitor, single point] | 
OC(CNCc1ccc(F)cc1)(c1ccccc1)c1ccc(F)cc1 (stereo unspecified) |  | inactive: -0.483%
CCCCCNC(=O)c1c[nH]c2ccc(S(=O)(=O)N3CCC4(CC3)OCCO4)cc2c1=O | inconclusive [inhibitor, single point] | 
O=[N+]([O-])c1cccc(C(F)(F)F)c1 |  | inactive: 0.758%
c1ccc(-c2cn3cccnc3n2)cc1 | inconclusive [inhibitor, partial curve] | 
O=c1c2c3c(sc2ncn1/N=C/c1ccccc1)CCCC3 |  | inactive: 0.0609%
COC(=O)c1c(NC(=O)COC(=O)[C@@H](NS(=O)(=O)c2ccc(C)cc2)C(C)C)sc2c1CCC2 | inconclusive [inhibitor, single point] | 
COc1ccc(C/C(=N\O)c2ccc(OC)cc2)cc1 |  | inactive: -27.3%

SMILES | Potency | activity change, negative = inhibition
OC1CCCN(Cc2c3ccccc3cc3ccccc23)C1 (stereo unspecified) | inconclusive [inhibitor, partial curve] | 
COCCCn1c(=N)c(C(=O)NCC2CCCO2)cc2c(=O)n3ccccc3nc21 (stereo unspecified) | inconclusive [inhibitor, partial curve] | 
Cc1ccc(/C=N/N2C(=O)c3ccccc3NC2c2ccc(C)cc2)cc1 (stereo unspecified) | inconclusive [inhibitor, partial curve] | 
COC(=O)Cn1c(=NC(=O)c2ccc(Cl)s2)sc2cc(C)ccc21 | inconclusive [inhibitor, partial curve] | 
CN1/C(=C\C(=O)c2cccnc2)C(C)(C)c2ccccc21 |  | inactive: -1.64%
CCOC(=O)N=S(=O)(Oc1ccc([N+](=O)[O-])cc1)c1ccccc1 (stereo unspecified) | inconclusive [inhibitor, single point] | 
CCN(CC)S(=O)(=O)c1ccc2oc(SCC(=O)NCc3ccccc3)nc2c1 |  | inactive: -10.3%
CCCCCCc1cc2cc(C(=O)NC)c(=N)oc2cc1O | inconclusive [inhibitor, partial curve] | 
CCOc1ccc(NS(=O)(=O)c2ccc3[nH]cc(C(=O)NCC4CCCO4)c(=O)c3c2)cc1 (stereo unspecified) | inconclusive [inhibitor, partial curve] | 
CS(=O)(=O)N1CCc2cc(-c3csc(NCC4CCCO4)n3)ccc21 (stereo unspecified) | active: 39.8 µM | 
COC(=O)c1ccccc1NC(=S)NC(=O)c1ccccc1F | inconclusive [inhibitor, partial curve] | 
Cc1cs/c(=N/C(=S)Nc2ccccc2)n1C | inconclusive [inhibitor, single point] | 
CCc1ccc(CC)c(S(=O)(=O)Nc2ccc(C(=O)O)c(O)c2)c1 | inconclusive [inhibitor, single point] | 
COc1ccc2c(c1)CCc1c(C(=O)N3CCc4ccccc4C3)noc1-2 | active: 17.8 µM | 
FC(F)C(F)(F)C(F)(F)C(F)(F)c1cc(-c2ccccc2)n[nH]1 | active: 15.8 µM | 
CC1CC(C)CN(C(=O)CSCC(=O)Nc2nc(-c3cccs3)cs2)C1 (stereo unspecified) | inconclusive [inhibitor, single point] | 
Cc1ccc(C(=O)c2ccc(N3CCOCC3)c(F)c2)cc1 | active: 28.2 µM | 
Cc1ccc2cc(CN(Cc3ccco3)S(=O)(=O)c3c(C)ccc4nsnc34)c(=O)[nH]c2c1 | inconclusive [inhibitor, single point] | 
Cc1ccc(NC(=O)CN2C(=O)S/C(=C\c3ccc(-c4cccc(C(=O)O)c4C)o3)C2=O)cc1 | active: 10 µM | 
C=CCSc1nc2c(c(=O)[nH]c(=O)n2C)n1C/C=C(/C)Cl |  | inactive: -24.8%
Nc1c(S(N)(=O)=O)cc(S(N)(=O)=O)cc1S(N)(=O)=O |  | inactive: -5.38%
O=C(c1cccc(F)c1)N1CCC2(CCCN(Cc3cc(C(F)(F)F)cc(C(F)(F)F)c3)C2)CC1 |  | inactive: -5.72%
CCn1cc(C(=O)O)c(=O)c2cnc(N3CCN(C(=O)Nc4cccc5ccccc45)CC3)nc21 | inconclusive [inhibitor, partial curve] | 

Source: PubChem BioAssay AID894 (National Center for Advancing Translational Sciences (NCATS), 2007)
